Like-named read-outs stand apart in the source and are kept apart here.
Molecular target: T1, R. norvegicus MCT1 (F360C) (UniProt P36035+P53987, F360C)
T1 sequence (P36035+P53987 with tags, fused parts or gaps P53987:F360C): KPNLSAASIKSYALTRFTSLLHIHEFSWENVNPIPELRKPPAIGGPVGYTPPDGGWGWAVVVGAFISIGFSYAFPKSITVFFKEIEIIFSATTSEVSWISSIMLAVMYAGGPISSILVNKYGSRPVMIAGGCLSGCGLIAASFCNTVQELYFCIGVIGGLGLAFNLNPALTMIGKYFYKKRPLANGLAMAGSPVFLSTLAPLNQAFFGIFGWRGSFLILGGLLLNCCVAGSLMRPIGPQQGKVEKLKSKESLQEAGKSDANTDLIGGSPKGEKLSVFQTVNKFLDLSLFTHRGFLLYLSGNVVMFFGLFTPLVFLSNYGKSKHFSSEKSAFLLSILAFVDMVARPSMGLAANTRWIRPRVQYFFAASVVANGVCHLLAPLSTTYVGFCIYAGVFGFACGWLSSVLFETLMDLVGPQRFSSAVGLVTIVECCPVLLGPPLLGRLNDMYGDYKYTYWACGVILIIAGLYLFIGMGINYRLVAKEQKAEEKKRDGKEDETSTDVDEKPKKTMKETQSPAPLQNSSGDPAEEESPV
Format: cell-based

Compound | Percent AZD3965 | Z-score | Day1 | Day2 | Fraction | Z.score | also measured
CC(=O)Nc1cccc(O)c1 [Metacetamol] | -7.335% | 0.3699 |  |  |  |  | 
COC(=O)c1ccccc1O [Methyl salicylate] | 2.824% | -0.1298 |  |  |  |  | 
CCN(CC)C(=O)[C@]1(c2ccccc2)C[C@@H]1CN.Cl [Milnacipran hydrochloride] | 111.097% |  | 0.074 | 0.8305 | 0.0891 | -5.08 | 
CCN(CC)C(=O)C1(c2ccccc2)CC1CN (stereo not shown) [Milnacipran] |  |  | 0.074 | 0.8305 | 0.0891 | -5.08 | Percent: 111.097%
COc1c(C)c2c(c(O)c1C/C=C(\C)CCC(=O)O)C(=O)OC2 [Mycophenolic (Mycophenolate)] | 77.8422% |  | 0.2166 | 0.8323 | 0.2602 | -3.184 | 
O=C1C[C@@H](c2ccc(O)cc2)Oc2cc(O)cc(O)c21 [NARINGENIN] |  |  |  |  |  |  | Fraction (10 μM): 0.3597; Percent AZD3965 (10 μM): 61.2861%; Z.score (10 μM): -5.108
O=[N+]([O-])c1ccc(O)c2ncccc12 [NITROXOLINE] |  |  | 0.0479 | 0.8236 |  |  | Fraction (10 μM): 0.05816; Percent AZD3965 (10 μM): 118.213%; Z.score (10 μM): -5.965
COc1ccc2cc(CCC(C)=O)ccc2c1 [Nabumetone] | -4.003% | 0.2159 |  |  |  |  | 
O=C1C[C@@H](c2ccc(O)cc2)Oc2cc(O)cc(O)c21 [Naringenin] |  |  | 0.2992 | 0.8317 | 0.3597 | -5.108 | Percent: 61.2861%
NC(=O)Cc1cccc(C(=O)c2ccccc2)c1N [Nepafenac] | 3.929% | -0.1285 |  |  |  |  | 
Cc1ccccc1-c1cc(N2CCN(C)CC2)ncc1N(C)C(=O)C(C)(C)c1cc(C(F)(F)F)cc(C(F)(F)F)c1 [Netupitant] | 40.3583% |  | 0.4476 | 0.8364 | 0.5352 | -6.855 | Percent: 40.3583%
O=C(O)c1cccnc1Nc1cccc(C(F)(F)F)c1 [Niflumic acid] | 4.097% | -0.2787 |  |  |  |  | 
CC(Cc1ccc(O)c(O)c1)C(C)Cc1ccc(O)c(O)c1 (stereo not shown) [Nordihydroguaiaretic acid] |  |  | 0.1035 | 0.7449 | 0.1389 | -3.361 | Percent: 102.566%; Fraction (10 μM): 0.1389; Percent AZD3965 (10 μM): 102.566%; Z.score (10 μM): -3.361
NCC(=O)Nc1ccc(-n2nc(C(F)(F)F)cc2-c2ccc3c(ccc4ccccc43)c2)cc1 [OSU-03012 (AR-12)] | 77.508% |  | 0.2328 | 0.8521 | 0.2732 | -4.04 | 
O=C(O)CCc1nc(-c2ccccc2)c(-c2ccccc2)o1 [Oxaprozin] | 7.1946% | -0.4497 |  |  |  |  | 
CCCCC1C(=O)N(c2ccccc2)N(c2ccc(O)cc2)C1=O (stereo not shown) [Oxyphenbutazone] | 3.439% | -0.2364 |  |  |  |  | 
O=C(/C=C/c1ccc(O)c(O)c1)OCCc1ccccc1 [PHENETHYL CAFFEATE (CAPE)] |  |  | 0.0549 | 0.7783 |  |  | Fraction (10 μM): 0.07054; Percent AZD3965 (10 μM): 114.39%; Z.score (10 μM): -5.685
c1ccc2c(c1)Nc1ccccc1S2 [PHENOTHIAZINE] |  |  |  |  |  |  | Fraction (10 μM): 0.5523; Percent AZD3965 (10 μM): 31.7015%; Z.score (10 μM): -3.813
O=C1c2ccccc2C(=O)c2c(O)c(O)cc(O)c21 [PURPURIN] |  |  | 0.2891 | 0.6964 |  |  | Fraction (10 μM): 0.4151; Percent AZD3965 (10 μM): 50.894%; Z.score (10 μM): -4.242
c1ccc2c(c1)Nc1ccccc1S2 [Phenothiazine] |  |  | 0.4688 | 0.8488 | 0.5523 | -3.813 | Offtarget_sub: 0.3075; Percent: 31.7015%
CCCCC1C(=O)N(c2ccccc2)N(c2ccccc2)C1=O [Phenylbutazone] | 10.1889% | -0.7109 |  |  |  |  | 

Compound | Percent AZD3965 | Z-score | Day1 | Day2 | Fraction | Z.score | also measured
O=C(CCc1ccc(O)cc1)c1c(O)cc(O)cc1O [Phloretin] | 49.1091% |  | 0.3412 | 0.7935 | 0.43 | -3.318 | Offtarget_sub: 0.1879; Percent: 49.1091%
CC(C(=O)O)c1ccc2c(c1)Cc1cccnc1O2 (stereo not shown) [Pranoprofen] | 4.459% | -0.2252 |  |  |  |  | 
O=C(C1CCCCC1)N1CC(=O)N2CCc3ccccc3C2C1 (stereo not shown) [Praziquantel] |  |  | 0.2811 | 0.8925 | 0.315 | -4.641 | Offtarget_sub: 0.1405; Percent: 66.5468%; Fraction (10 μM): 0.315; Percent AZD3965 (10 μM): 66.5468%; Z.score (10 μM): -4.641
CCCc1c(-c2ccc(O)cc2)nn(-c2ccc(O)cc2)c1-c1ccc(O)cc1 [Propylpyrazole triol] |  |  |  |  |  |  | Offtarget_sub: -0.0238
O=c1c(O)c(-c2ccc(O)c(O)c2)oc2cc(O)cc(O)c12 [Quercetin (Sophoretin)] | 75.3571% |  | 0.2282 | 0.838 | 0.2723 | -3.082 | 
O=c1c(O)c(-c2ccc(O)c(O)c2)oc2cc(O)cc(O)c12 [Quercetin dihydrate] | 79.1565% |  | 0.2177 | 0.8165 | 0.2666 | -5.348 | 
O=c1c(O)c(-c2ccc(O)c(O)c2)oc2cc(O)cc(O)c12 [Quercetin] |  |  | 0.2177 | 0.8165 | 0.2666 | -5.348 | Offtarget_sub: 0.0644; Percent: 79.1565%
Cc1c(NC(C)C)c(=O)n(-c2ccccc2)n1C [Ramifenazone] | -5.639% | 0.2843 |  |  |  |  | 
CO[C@H]1C[C@@H]2CC[C@@H](C)[C@@](O)(O2)C(=O)C(=O)N2CCCC[C@H]2C(=O)O[C@H]([C@H](C)C[C@@H]2CC[C@@H](O)[C@H](OC)C2)CC(=O)[C@H](C)/C=C(\C)[C@@H](O)[C@@H](OC)C(=O)[C@H](C)C[C@H](C)/C=C/C=C/C=C/1C [Rapamycin] |  |  | 0.0549 | 0.1478 |  |  | Fraction (10 μM): 0.3714; Percent AZD3965 (10 μM): 55.7084%; Z.score (10 μM): -3.886
Nc1ccc(-c2nc3ccc(-c4nc5cc(N)ccc5[nH]4)cc3[nH]2)cc1 [Ro 90-7501] |  |  | 0.0517 | 0.9374 |  |  | Fraction (10 μM): 0.05515; Percent AZD3965 (10 μM): 117.555%; Z.score (10 μM): -7.983
CS(=O)(=O)c1ccc(C2=C(c3ccccc3)C(=O)OC2)cc1 [Rofecoxib] |  | -2.341 | 0.0762 | 0.833 | 0.09148 | -5.058 | Offtarget_sub: -0.0691
N.N.N.N.N.N.N.N.N.N.N.N.N.N.[Cl-].[Cl-].[Cl-].[Cl-].[Cl-].[Cl-].[O-2].[O-2].[Ru+3].[Ru+3].[Ru+4] [Ruthenium red] | 78.0937% |  | 0.2225 | 0.8168 | 0.2724 | -5.277 | 
N#CC[C@@H](C1CCCC1)n1cc(-c2ncnc3[nH]ccc23)cn1 [S-Ruxolitinib (INCB018424)] | 82.8995% |  | 0.2084 | 0.8208 | 0.2539 | -5.127 | 
NS(=O)(=O)c1ccc(-n2nc(C(F)(F)F)cc2-c2ccc(Cl)cc2)cc1 [SC-236, reference compound] | 28.7982% | -1.956 |  |  |  |  | Day1 (OD600 after 24 hours non-permissive dark conditions): 0.3998; Day2 (OD600 after additional 24 hours permissive conditions): 0.7794; Fraction (growth in non-permissive phase divided by growth in permissive phase) (10 μM): 0.513; Percent (percent AZD3965 score) (10 μM): 28.7982%; Z-score (10 μM): -1.956
CS(=O)(=O)c1ccc(-n2nc(C(F)(F)F)cc2-c2ccc(F)cc2)cc1 [SC-58125] | -2.07% | 0.155 |  |  |  |  | 
CC1=C(C)C(=O)C(C(CCCCCC(=O)O)c2ccccc2)=C(C)C1=O (stereo not shown) [SERATRODAST] | 84.979% |  |  |  |  |  | 
CO[C@H]1C[C@@H]2CC[C@@H](C)[C@@](O)(O2)C(=O)C(=O)N2CCCC[C@H]2C(=O)O[C@H]([C@H](C)C[C@@H]2CC[C@@H](O)[C@H](OC)C2)CC(=O)[C@H](C)/C=C(\C)[C@@H](O)[C@@H](OC)C(=O)[C@H](C)C[C@H](C)/C=C/C=C/C=C/1C [SIROLIMUS] |  |  | 0.1744 | 0.7372 |  |  | Fraction (10 μM): 0.2366; Percent AZD3965 (10 μM): 83.2137%; Z.score (10 μM): -5.44
Oc1ccc(Nc2nc(-c3ccc(Cl)cc3)cs2)cc1 [SKI II] | 91.1182% |  | 0.1611 | 0.8012 | 0.2011 | -4.748 | 
O=C(O)Cn1c(C(=O)Nc2nc(-c3ccccc3Cl)cs2)cc2ccccc21 [SR 27897 hydrate] |  |  |  |  |  |  | Fraction (10 μM): 0.3212; Percent AZD3965 (10 μM): 63.9018%; Z.score (10 μM): -3.5958
COc1ccc(CCN(C)CCCOc2ccc(S(=O)(=O)c3c(C(C)C)c4ccccc4n3C)cc2)cc1OC.O=C(O)C(=O)O [SR 33805] | 61.5199% |  |  |  |  |  | 

— article PMC11637378, “Optogenetic screening of MCT1 activity implicates a cluster of non-steroidal anti-inflammatory drugs (NSAIDs) as inhibitors of lactate transport” (PLOS ONE, 2024)
